In PubChem BioAssay AID485344 (National Center for Advancing Translational Sciences (NCATS), 2010):
The campaign covered roughly 340,000 compounds. About 6,900 (2%) were called active. No stated cut-off is given here; in the data, active means inhibition above about 30%; inactive means below that, where a call was filed. The entries are a selection whose mix differs from that of the whole data set. Entries without a call were filed so in the source.

Molecular target: D(2) dopamine receptor (Homo sapiens) (UniProt P14416)
Test: HTS Assay for Allosteric Antagonists of the Human D2 Dopamine Receptor: Primary Screen for Antagonists; further: 0% is about no effect
Details: HEK293 TREx D2 cells, calcium flux, dopamine EC80; at 10 µM; stronger effect = higher value
Method in brief: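 Calcium flux kinetic readout in an inducible HEK293 TREx D2 line plated overnight at 30 C. After 180 s compound exposure, an EC80 dopamine challenge follows with another 180 s kinetic read to detect antagonism.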

UniProt P14416, sequence (P14416 whole entry, looked up): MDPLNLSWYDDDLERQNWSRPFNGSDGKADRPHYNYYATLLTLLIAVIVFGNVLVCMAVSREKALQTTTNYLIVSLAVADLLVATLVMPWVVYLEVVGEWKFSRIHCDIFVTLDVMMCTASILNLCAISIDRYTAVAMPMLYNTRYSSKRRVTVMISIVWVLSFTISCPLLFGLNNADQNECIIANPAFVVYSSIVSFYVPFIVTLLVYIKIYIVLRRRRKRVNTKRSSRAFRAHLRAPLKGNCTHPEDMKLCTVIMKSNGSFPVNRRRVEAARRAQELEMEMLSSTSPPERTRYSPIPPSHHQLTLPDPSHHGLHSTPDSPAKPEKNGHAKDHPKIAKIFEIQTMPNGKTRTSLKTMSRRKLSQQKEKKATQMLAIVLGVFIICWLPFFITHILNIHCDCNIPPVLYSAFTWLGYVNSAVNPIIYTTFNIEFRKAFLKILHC

SMILES	inhibition
CN(Cc1ccccc1)c1ccc(-c2nc(-c3cccnc3)no2)cc1[N+](=O)[O-]	26.2%
CCOC(=O)c1cccc(NC(=O)c2nn(-c3ccc(OC)cc3)c(=O)c3c2c2ccccc2n3C)c1	-1.97%
CCC(C(=O)NCCc1cc(OC)ccc1OC)n1nc(C)c2sc3ccccc3c2c1=O (stereo unspecified)	5.22%
CN1CCN(C2=Cc3ccc(Cl)cc3Sc3ccc(F)cc32)CC1	active: 103%
CCCCC(=O)N/N=C/c1ccc(N2CCOCC2)c([N+](=O)[O-])c1	active: 59.1%
Cc1cc(-c2nc3ncccc3o2)ccc1NC(=O)COc1cc(C)c(Cl)c(C)c1	-13.8%
CN(C)c1ccc(CNC(=O)c2cccn2-c2nnc(N3CCCCC3)s2)cc1	3.75%
CCCCOc1ccc(C(=O)NCCc2csc(-c3ccc(OC)cc3)n2)cc1	-0.128%
CCOC(=O)c1cnc2nc(NCc3ccc(OCC)cc3)[nH]n2c1=O	8.71%
CN(CC(=O)Nc1cccc(F)c1)C(=O)c1cc([N+](=O)[O-])ccc1N1CCCCC1	active: 41.6%
CCOc1ccc(S(=O)(=O)NCC(c2cccs2)S(=O)(=O)c2ccc(C)cc2)cc1 (stereo unspecified)	-0.174%
Cc1ccc(C)c(N(C)S(=O)(=O)c2ccc3[nH]cc(C(=O)NC4CCCC4)c(=O)c3c2)c1	13%
Cc1cccc(C)c1NC(=O)CNC(=O)CN1C(=O)NC2(CCc3ccccc32)C1=O (stereo unspecified)	active: 33.2%
CC(C)(C)NC(=O)CCSc1nc(-c2ccc3c(c2)OCO3)cc(C(F)(F)F)n1	12.1%
COc1ccc(S(=O)(=O)c2cn(C)c3cc(N4CCOCC4)c(F)cc3c2=O)cc1	-0.542%
Cc1ccc(NS(=O)(=O)c2ccc3[nH]c4c(c3c2)CCCCC4)cc1	8.31%
Cc1ccc(OCc2cc(=O)n3cc(C)sc3n2)c(C)c1	4.91%
CC(=O)N1CCc2cc(S(=O)(=O)N3CCN(c4ccc(C)cc4)C(C)C3)ccc21 (stereo unspecified)	6.33%
Cc1cccnc1NC(=O)CSc1nnc(Cc2ccccc2)o1	active: 44.4%
CCc1ccc(OCC(=O)Nc2ccc3oc(-c4ccc(OC)cc4)nc3c2)cc1	19.6%
CCc1ccc(OCC(=O)Nc2ccc(Cl)c(-c3nc4ncccc4o3)c2)cc1	-8.82%

SMILES	inhibition
O=C(COc1ccccc1)Nc1c(Cl)ccc2nsnc12	7.94%
COC(=O)CC1Oc2ccc(Cl)cc2-n2cc(-c3ccc(F)cc3)nc21 (stereo unspecified)	8.83%
CC1CCc2c(sc(NC(=O)c3cc(-c4ccc(Br)cc4)on3)c2C(N)=O)C1 (stereo unspecified)	5.56%
COc1ccc(-c2nn(C)c3sc(C(=O)N4CCN(c5cccc(Cl)c5)CC4)cc23)cc1OC	0.165%
COc1ccc(NC(=O)C2CCN(S(=O)(=O)c3c(C)noc3/C=C/c3ccc(C)cc3)CC2)cc1Cl	19.4%
Cc1c(CNCCCc2ccccc2)c(C(=O)O)c(C)n1Cc1cccc(Cl)c1	-4.75%
Cc1cccc(-n2c(-c3ccco3)nc3c(cnn3-c3ccc(F)cc3)c2=O)c1	-14.2%
Cc1ccc(-n2cnc3cc(C(=O)NC4CCCCCC4)ccc32)cc1Cl	-5.59%
COC(=O)c1c(C)sc(-c2c(-c3ccc4c(c3)OCCO4)[nH]c3c2c(=O)[nH]c(=O)n3C)c1O	5.5%
CCC1=C(c2ccc(C)cc2)S(=O)(=O)N=C1N1CCC(C(=O)N2CCCCC2)CC1	9.02%
CCS(=O)(=O)NCCc1csc2nc(-c3ccc(C)cc3)nn12	12.4%
Cc1ccc(CC(=O)Nc2ccc(F)c([N+](=O)[O-])c2)cc1C	active: 42.2%
O=C(COCc1cc(-c2cccs2)on1)Nc1cccc(O)c1	-14.7%
Cc1ccc(C)c(NC(=O)Nc2csc3c2CCCC3)c1	-23.9%
Cc1cc(C)c(NC(=O)CCCn2c(=O)oc3ccccc32)c(C)c1	active: 33.1%
CCOC(=O)N1CCN(Cc2ccc(OCC(O)CN3CCCCC3)cc2)CC1 (stereo unspecified)	active: 50.9%
CC(C)NC(=O)C1CCN(C(=O)N2CC(C)Oc3ccccc32)CC1 (stereo unspecified)	9.29%
CCOc1ccc2nc(N3CCCC(C(=O)NCc4ccc(C)cc4)C3)sc2c1 (stereo unspecified)	6.72%
COc1ccccc1NC(=O)Cn1c(=O)n(Cc2nc(-c3ccccc3)no2)c(=O)c2ccccc21	0.403%
CN1CCc2c(n(CC(O)CNCc3ccccc3)c3ccccc23)C1=O (stereo unspecified)	active: 66.3%
COc1ccc(-c2nc3c4ccccc4n(CC(=O)N4CCN(c5ccccc5F)CC4)c(=O)n3n2)cc1	-2.08%

SMILES	inhibition
O=C(CCCC(=O)OCC(=O)c1ccc(F)cc1)Nc1cc(C(F)(F)F)ccc1Cl	active: 46.9%
CCCCN(CC)CCNC(=O)c1nn(C)c2c1CS(=O)(=O)c1ccccc1-2	11.9%
Cc1ccc(C(=O)N/C(N)=N/c2nc3ccccc3o2)cc1	active: 53%
C=CCN(CC=C)CCOc1ccc(C)cc1[N+](=O)[O-]	active: 38.3%
Cc1ccc(NC(=O)CSc2nnc(NC(=O)NC3CCCCC3)s2)cc1	27.7%
CCc1ccc(NC(=O)CCCc2nnc3n(C(C)CC)c(=O)c4sccc4n23)cc1 (stereo unspecified)	-3.83%
COc1ccccc1C(=O)Nc1ccc(S(=O)(=O)Nc2nc(C)cc(C)n2)cc1	4.13%
COc1ccc(C(C)(C)C)cc1NC(=O)CCc1c(C)noc1C	active: 63.4%
O=C(O)CN1C(=O)COc2cc(S(=O)(=O)N3CCCC3)ccc21	active: 30.8%
COc1ccc(C(=O)NCC(=O)N/N=C/c2c(C)[nH]c3ccccc23)cc1	active: 52.7%
O=c1cc(-c2ccc([N+](=O)[O-])cc2)nc2cc(-c3ccc(Cl)cc3)[nH]n12	active: 35.5%
COc1ccc(NC(=O)c2ccco2)cc1NC(=O)c1cc(Br)ccc1Cl	8.41%
CCOc1ccc(C(=O)c2oc3ccccc3c2NC(=O)c2cc(=O)c3ccc(C)cc3o2)cc1	12.6%
CCCCN(CC)C(=O)CSc1nc2ccccc2c(=O)n1Cc1ccco1	-5.8%
COc1cc(-c2nc(-c3ccccc3)c(-c3ccc(Br)cc3)[nH]2)cc(OC)c1O	-16.9%
COc1ccc(NC(=O)C2CCN(c3ccc(Sc4ccc(C)cc4)nn3)CC2)cc1	-6.1%
COC(=O)c1cc2sc(Cl)cc2n1Cc1nc(-c2ccccc2C)oc1C	8.29%
CC1CN(C(=O)N2CCC(C(=O)NCc3cccs3)CC2)c2ccccc2O1 (stereo unspecified)	-9.32%
COc1ccc(Nc2oc(/C=C/c3cc(OC)c(OC)c(OC)c3)nc2C#N)cc1	14.3%
